Source: PMC6919601, “Identification of Plasmodium dipeptidyl aminopeptidase allosteric inhibitors by high throughput screening” (PLoS ONE, 2019)
Where “and” joins values, the source holds several entries; their conditions need not be identical. Identical values can stand only once. In all, about 110,000 compounds went through this assay and about 230 (0.21%) showed an effect of 50% or more. Some of the results follow.

Molecular target: DPAP1 (Plasmodium falciparum, UniProt Q8IIJ9)
Assay: primary screen, percent inhibition; read by cleavage of a fluorogenic dipeptide substrate; higher = more effect of the substance
Design: species or system P. falciparum D10 trophozoite lysates; single well
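Further: 30 min substrate incubation versus DMSO and 10 µM JCP410 controls.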

DPAP1, sequence (Q8IIJ9 whole entry, looked up): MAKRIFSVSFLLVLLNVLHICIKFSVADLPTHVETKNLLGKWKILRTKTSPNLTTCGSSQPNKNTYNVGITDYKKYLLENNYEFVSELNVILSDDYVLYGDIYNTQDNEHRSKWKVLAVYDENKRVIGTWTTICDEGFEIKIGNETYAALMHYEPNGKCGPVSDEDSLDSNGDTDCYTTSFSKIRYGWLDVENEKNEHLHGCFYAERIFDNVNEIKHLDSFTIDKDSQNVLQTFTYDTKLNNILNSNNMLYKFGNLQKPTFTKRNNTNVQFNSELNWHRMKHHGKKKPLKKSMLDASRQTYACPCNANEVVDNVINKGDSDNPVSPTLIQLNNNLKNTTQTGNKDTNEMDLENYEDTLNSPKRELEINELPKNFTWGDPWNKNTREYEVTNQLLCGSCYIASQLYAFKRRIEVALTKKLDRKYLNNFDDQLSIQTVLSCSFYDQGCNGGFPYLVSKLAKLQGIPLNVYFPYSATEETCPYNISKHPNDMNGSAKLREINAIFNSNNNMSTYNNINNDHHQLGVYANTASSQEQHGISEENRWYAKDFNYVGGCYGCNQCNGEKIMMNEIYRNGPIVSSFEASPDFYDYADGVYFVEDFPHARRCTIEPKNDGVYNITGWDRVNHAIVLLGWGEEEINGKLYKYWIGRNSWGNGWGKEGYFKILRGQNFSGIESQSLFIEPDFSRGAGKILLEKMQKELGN

| Compound | % Inhibition @ 10 uM |
| --- | --- |
| CC1(C)CC(=O)C2=C(C1)N1C(=C(C#N)C2c2cccnc2)NC(=O)c2c1sc1c2CCCC1 (centres unmarked) | -4.12% |
| Cc1cc(C)nc(NC(=O)NS(=O)(=O)N2CCCCCC2)n1 | -9.91% |
| O=C(Cc1c(O)nc2ccccc2c1O)NCc1ccncc1 | 0.219% |
| O=C(O)c1ccccc1C(=O)NCc1ccccc1 | 3.06% |
| COc1ccc(C(=O)N2CCN(C(=O)c3ccc(OC)c(OC)c3)CC2)cc1OC | -4.86% |
| COc1ccc(OC)c(S(=O)(=O)n2nc(-c3ccc(Cl)cc3)cc2N)c1 | -1.08% |
| CC(C)c1ccc(-c2c(N3CCN(c4ccccn4)CC3)c(=O)c2=O)cc1 | -2.28% |
| O=C(COCc1cc(-c2ccco2)on1)NCCN1CCOCC1 | 3.87% |
| CCOC(=O)C1C(=O)C=C(N2CCOCC2)CC1c1ccccc1 (centres unmarked) | -1.15% |
| Cc1ccc(NC(=O)Nc2ccc(Cl)cc2)cc1F | 1.13% |
| CCOc1ccc(C(CC(=O)O)NC(=O)c2ccco2)cc1 (centres unmarked) | 6.51% |
| Cc1cccc2c1nc1s/c(=C/c3c[nH]nc3-c3ccccc3)c(=O)n12 | 17.9% |
| CC(=O)Nc1ccc(-c2cc(-c3ccc(NC(C)=O)cc3)ncn2)cc1 | 0.937% |
| NC(=O)CSc1nc2nccnc2c(=O)n1Cc1ccccc1Cl | -8% |
| C=CCN1C(=O)C2(C(C#N)=C(N)OC3=C2C(=O)CC(C)(C)C3)c2ccccc21 (centres unmarked) | -4.41% |
| Cc1ccc(NC(=O)c2ccc(CSc3ncnc4[nH]cnc34)cc2)c(C)c1 | 0.843% |
| COc1ccc(C(=O)Nc2ccc3c4c(cccc24)CC3)cc1 | 2.22% |
| Cc1ccc(S(=O)(=O)c2nnn3c2nc(NCCc2c[nH]c4ccccc24)c2ccccc23)cc1 | -1.37% |
| COc1ccc(C(=O)Nc2ccc(C)cc2)cc1 | -8.49% |
| COc1ccc(/C=C/c2nc3ccccc3c3ccccc23)cc1 | -1.05% |
| CCCc1cc(O)nc(SCc2cccc(C)c2)n1 | -6.69% |
| CCOc1ccc(C(C)NC(=O)Cc2ccccc2)cc1OCC (centres unmarked) | -1.5% |
| CN(C)c1ccc(Nc2nc(-c3ccncc3)cs2)cc1 | -2.48% |
| COc1cc(/C=c2\sc3nc(-c4ccncc4)nn3c2=O)ccc1OCCC(C)C | 0.487% |
| O=C(O)c1cccc(NC(=O)c2cccc(S(=O)(=O)Nc3ccc(Cl)cc3)c2)c1 | -1.96% |

| Compound | % Inhibition @ 10 uM |
| --- | --- |
| CC(C)(C)NS(=O)(=O)c1ccc(NC(=O)COc2ccccc2Cl)cc1 | 2.95% |
| O=C(CSc1nnnn1Cc1ccccc1)NCc1cc(C(=O)c2ccccc2)ccc1O | -1.85% |
| Cc1cc2c(c(S)n1)C(=O)O/C2=C\c1c[nH]nc1-c1ccc(F)cc1 | 26% |
| CCN1CCN(CC(O)COc2ccccc2C(C)(C)C)CC1 (centres unmarked) | 2.65% |
| COc1ccc(C(=O)N/C(=C\c2cccc3ccccc23)C(=O)Nc2ccccc2OC)cc1 | -4.76% |
| COc1ccc(C(=O)Nc2ccc(S(=O)(=O)N3CCc4ccccc43)cc2)cc1 | -1.04% |
| O=S(=O)(c1ccc(-c2ccc(O)nn2)s1)N1CCN(C2CCCCC2)CC1 | 3.43% |
| Cc1cccc(C2C=C(c3ccc(Br)s3)Nc3ncnn32)c1 (centres unmarked) | -0.125% |
| CN1CCN(c2ccc(NC(=O)CC34CC5CC(CC(C5)C3)C4)cc2)CC1 | 2.01% |
| O=C1CC(Sc2ccccn2)C(=O)N1c1ccc(F)cc1F (centres unmarked) | 2.38% |
| COc1ccc(S(=O)(=O)NCCc2nnc3ccc(SCc4cc(C)ccc4C)nn23)cc1 | 3.8% |
| CCCCCOc1ccc(C2c3c(-c4ccccc4O)n[nH]c3C(=O)N2CCOC)cc1OC (centres unmarked) | 3.62% |
| C/N=C1\S/C(=C\c2cc(OC)c(N3CCCC3)cc2OC)C(=O)N1C | -11.7% |
| CCN(CC)CCCCOc1ccccc1 | 5.85% |
| CC1C(c2ccccc2)NC(c2ccccc2)CC1(O)c1ccc(F)cc1 (centres unmarked) | -0.13% |
| COc1ccccc1C1C(C(C)=O)=C(O)C(=O)N1c1nc2ccccc2s1 (centres unmarked) | -1.93% |
| C/C=C/Cn1c(N2CCCCC2)nc2c1c(=O)[nH]c(=O)n2C | -9.24% |
| Sc1nnc(-c2cccs2)n1Cc1ccc2c(c1)OCO2 | 1.96% |
| COc1ccc(Br)cc1C(=O)Nc1cc(Cl)ccc1C(=O)O | -3.45% |
| CC1(C)CC(=O)C(/C=N/CCCN2CCCC2=O)=C(O)C1 | -6.69% and 2.01% |
| O=C(NCCN1CCOCC1)c1ccc(-n2c(-c3ccccc3)cc3c2CCCC3)cc1 | -2.58% |
| O=C(O)C1C2CCC(C2)C1C(=O)Nc1ccc(Oc2ccc(Cl)cc2)cc1 (centres unmarked) | -4.39% |
| CN1CCN(Cc2ccc(F)c(F)c2)CC1 | 1.63% |
| NC1CCCc2c1[nH]c1ccc(Br)cc21 (centres unmarked) | -5.61% |
| COCCNC(=O)C1CCN(c2ncnc3c2sc2cccc(F)c23)CC1 | 0.828% |
